Experimental data reported in PubChem BioAssay AID360 (National Center for Advancing Translational Sciences (NCATS), 2006).
Among all 48,000 compounds or so, about 550 (1.1%) were called active. Not shown: some 4% with an inconclusive outcome. No stated cut-off is given here; in the data, active means potency below about 15 µM; inconclusive means mostly about 16 µM to 33 µM; inactive means weaker than that. The list shows a part of the results.

What follows are compounds tested against Lysosomal acid glucosylceramidase (Homo sapiens) (UniProt P04062) (assay: Glucocerebrosidase). Details: purified enzyme, resorufin glucoside fluorescence (screen aimed at inhibitors), 20 min.
Chain of UniProt P04062 (P04062 whole entry, looked up): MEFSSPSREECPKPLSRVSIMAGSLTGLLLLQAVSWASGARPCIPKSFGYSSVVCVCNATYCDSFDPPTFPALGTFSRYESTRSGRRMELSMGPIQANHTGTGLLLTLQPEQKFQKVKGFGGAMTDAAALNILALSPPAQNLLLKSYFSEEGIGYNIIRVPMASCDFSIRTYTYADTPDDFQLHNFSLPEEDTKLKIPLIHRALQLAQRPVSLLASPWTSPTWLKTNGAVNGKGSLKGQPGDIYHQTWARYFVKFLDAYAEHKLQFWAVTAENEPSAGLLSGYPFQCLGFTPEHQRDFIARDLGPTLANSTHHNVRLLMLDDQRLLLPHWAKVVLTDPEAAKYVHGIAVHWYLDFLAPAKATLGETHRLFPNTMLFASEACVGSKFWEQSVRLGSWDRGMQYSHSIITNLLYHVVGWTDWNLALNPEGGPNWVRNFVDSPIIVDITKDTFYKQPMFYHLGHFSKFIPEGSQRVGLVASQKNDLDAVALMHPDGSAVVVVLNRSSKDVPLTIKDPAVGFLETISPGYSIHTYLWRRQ
Method in brief: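 Normal human glucocerebrosidase (0.2 nM final) was assayed with resorufin β-D-glucopyranoside (30 uM final) in 50mM citric acid/KH2PO4, 10mM sodium taurocholate, 0.01% tween-20, pH 5.9. Compounds were titrated; fluorescence (Ex 548, Em 600) read after 20 min at RT.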
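Further: the screen sought inhibitors.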
Potency means the concentration at half of the fitted maximal effect.

SMILES	Potency
Cc1cccc(Nc2nc(N)nc(CN3CCN(C)CC3)n2)c1	inactive: > 76.9 µM
OCc1ccnc2c(O)cccc12	inactive: > 76.9 µM
CCOC(=O)N1CCC(N(CCCOC)C(=O)Nc2ccc(CC)cc2)CC1	inactive: > 76.9 µM
O=C(CC1Nc2ccccc2NC1=O)Nc1ccccc1 (configuration not stated)	inactive: > 76.9 µM
Cn1c(=NC(=O)CN2C(=O)C3CC=CCC3C2=O)sc2ccccc21 (configuration not stated)	inactive: > 76.9 µM
O=C(Nc1ccc2c(c1)OCO2)c1cccc(S(=O)(=O)N2CCCC2)c1	inactive: > 76.9 µM
c1coc(Cn2c(SCc3nc4ccccc4[nH]3)nnc2-c2cccs2)c1	inactive: > 76.9 µM
CCOc1ccc(OCC)c(NC(=O)C2CCN(c3ncccn3)CC2)c1	inactive: > 76.9 µM
O=C(CCC(=O)NC1CC1)Nc1nnc(C2CCCCC2)s1	inactive: > 76.9 µM
Cc1ccc(CC2(O)CC(C)N(C)CC2C)c(C)c1 (configuration not stated)	inactive: > 76.9 µM
Cc1cc2ncn(S(=O)(=O)c3ccc(S(=O)(=O)N4CCOCC4)cc3)c2cc1C	inactive: > 76.9 µM
CN(C)C(=O)N1CCC(C(=O)NCc2ccc(F)cc2Cl)CC1	inactive: > 76.9 µM
COc1ccc(CCNC(=O)CN2C(=O)c3ccccc3S2(=O)=O)cc1OC	inactive: > 76.9 µM
CCS(=O)(=O)N1CCC(NC(=O)c2ccco2)CC1	inactive: > 76.9 µM
CCN1CCN(Cc2ccc(OC)c(OCc3ccccc3)c2)CC1	inactive: > 76.9 µM
COc1cccc(CNC(=O)c2ccc(NC(=O)C3CCCO3)cc2)c1 (configuration not stated)	inactive: > 76.9 µM
O=C1c2ccccc2C(=O)N1CCCCCc1nc(-c2ccccc2)no1	inactive: > 76.9 µM
Cc1cnc(-c2nnc(N(C)C(=O)c3cnccn3)s2)cn1	inactive: > 76.9 µM
CCc1ccc(N2CC(C)Cn3c2nc2c3c(=O)n(CCN3CCOCC3)c(=O)n2C)cc1 (configuration not stated)	inactive: > 76.9 µM
CCOC(=O)C(NC(=O)c1ccccc1OCC)(Nc1ncccn1)C(F)(F)F (configuration not stated)	inactive: > 76.9 µM
O=C(Nc1cccc2c1CCCC2)C1CCN(C(=O)NC2CCCCC2)CC1	inactive: > 76.9 µM
O=C(COc1ccccc1)NCC(=O)NC1=NCCS1	inactive: > 76.9 µM
Cc1ccc(-c2nnc(N(C)C(=O)c3cccnc3)s2)cn1	inactive: > 76.9 µM

SMILES	Potency
CCc1cccc2c(=O)c(C(=O)N3CCOCC3)c[nH]c12	inactive: > 76.9 µM
COCC(=O)Nc1c(C(=O)Nc2cccc(OC)c2)oc2ccccc12	inactive: > 76.9 µM
Cc1ccc2c(c1)CCCN2C(=O)c1c(C)noc1C	inactive: > 76.9 µM
N#CN(CC(N)=O)c1nc(N2CCCCC2)nc(N2CCCCC2)n1	inactive: > 76.9 µM
Fc1ccc(-c2ccc(-c3nn4c(-c5ccco5)nnc4s3)o2)cc1	inactive: > 76.9 µM
CCOc1ccc(N2C(=O)CSC23CCCCC3)cc1	inactive: > 76.9 µM
CC(C)n1cc(/C=C(\C#N)S(=O)(=O)c2ccccc2)c2ccccc21	inactive: > 76.9 µM
O=C(Cn1cnc2ccccc2c1=O)NCC(=O)N1CCN(c2ccccn2)CC1	inactive: > 76.9 µM
O=C(c1cn(-c2ccccc2)nc1-c1ccncc1)n1nnc2ccccc21	inactive: > 76.9 µM
Cc1cc(C)n2nc(SCN3C(=O)c4ccccc4C3=O)nc2n1	inactive: > 76.9 µM
Cn1c(=O)n(Cc2ccccc2F)c(=O)c2c1nc1n2CCCN1CCc1ccccc1	active: 13.5 µM
CCCC(c1nnnn1Cc1cccs1)N1CCN(C2CCCC2)CC1 (configuration not stated)	inactive: > 76.9 µM
CCc1cccc(CC)c1NC(=O)CN1CCN(c2ccccc2)CC1	inactive: > 76.9 µM
OC(COC1CCCCC1)CN1CCN(c2ccccc2)CC1 (configuration not stated)	inactive: > 76.9 µM
O=C(NC1CCCC1)C(c1cccs1)N(CC1CCCO1)C(=O)Cc1cccs1 (configuration not stated)	inactive: > 76.9 µM
Cc1occc1-c1nnc(SCC(=O)NCc2cccs2)n1-c1ccc(F)cc1	inactive: > 76.9 µM
NC(=O)C1CCN(C(=O)CN2CCN(c3cccc(C(F)(F)F)c3)CC2)CC1	inactive: > 76.9 µM
C=CCn1cnc2c(c1=O)c1nc3ccccc3nc1n2/N=C/c1cccc(OC)c1	inactive
CCOc1cc(N2CCOCC2)c(OCC)cc1NC(=O)CCS(=O)(=O)c1ccc(Cl)cc1	inactive: > 76.9 µM
COc1ccc(OCC(=O)Nc2ccc(N3CCOCC3)c(Cl)c2)cc1	inactive
CCCCC(=O)Nc1ccc(NC(=O)CC)cc1OC	inactive: > 76.9 µM
CCn1cc(C(C)NC(=O)COc2ccc(Cl)cc2C)c(C)n1 (configuration not stated)	inactive: > 76.9 µM
CCOc1ccccc1Nc1ncnc2ccccc12	inactive: > 76.9 µM

SMILES	Potency
CCOc1c2c(nc3ccc(Cl)cc13)CCC2	inactive: > 76.9 µM
Cc1ccc2[nH]c(=O)c(CN(Cc3cccs3)Cc3nnnn3CC3CCCO3)cc2c1 (configuration not stated)	inactive: > 76.9 µM
O=C(c1ccco1)N1CCN(c2ncnc3c2cnn3-c2ccccc2)CC1	inactive: > 76.9 µM
COC(=O)c1ccc(Cl)c(NS(=O)(=O)c2ccc3c(c2)OCCO3)c1	inactive: > 76.9 µM
COc1ccc(CNC(=O)c2csnn2)cc1	inactive: > 76.9 µM
Cc1ccc2[nH]c(C(=O)O)c(NC(=O)CN3CCN(c4cccc(C)c4C)CC3)c2c1	inactive: > 76.9 µM
c1coc(Cn2nnnc2CN2CCN(C3CCCCC3)CC2)c1	inactive: > 76.9 µM
O=C(CCC(=O)N(Cc1ccco1)C(C(=O)NC1CCCC1)c1ccncc1)Nc1cccnc1 (configuration not stated)	inactive
COc1cccc(C2=NOC(C(=O)Nc3cc(OC)c(OC)c(OC)c3)C2)c1 (configuration not stated)	inactive: > 76.9 µM
CCOC(=O)N1CCN(Cc2cc(=O)oc3cc4c(cc23)CCC4)CC1	inactive: > 76.9 µM
CCC1(NC(C)=O)CC2CC1CC2NC(C)=O (configuration not stated)	inactive: > 76.9 µM
COc1cc(OC)cc(-n2c3nc4ccccc4nc3c3c(=O)n(CC4CCCO4)cnc32)c1 (configuration not stated)	inactive: > 76.9 µM
C=CCN(C(=O)CNC(=O)c1ccco1)C(C(=O)NC1CCCCC1)c1ccccc1 (configuration not stated)	inactive: > 76.9 µM
COc1cc(-c2csc(N3CCOCC3)n2)cc(OC)c1OC	inactive: > 76.9 µM
O=C(CCS(=O)(=O)Cc1ccccc1)N1CCN(Cc2ccccc2)CC1	inactive: > 76.9 µM
CCOC(=O)c1cccc(NC(=O)C2CCCO2)c1 (configuration not stated)	inactive: > 76.9 µM
O=C(C1CCN(S(=O)(=O)c2cccs2)CC1)N1CCc2ccccc2C1	inactive: > 76.9 µM
CCOC(=O)n1c(SCC(=O)N(CC)CC)nc2ccccc21	inactive: > 76.9 µM
CCOc1ccc(-c2noc(COC)n2)cc1OC	inactive: > 76.9 µM
COc1ccc(N2CCN(c3ccc(NC(=O)C4CCCCC4)cc3C#N)CC2)cc1	inactive: > 76.9 µM
COC(=O)c1ccc(OC)c(CSc2nnc(COc3ccc(OC)cc3)o2)c1	inactive: > 76.9 µM
CCOC(=O)N1CCC(Nc2c(Nc3cccc(CC)c3)c(=O)c2=O)CC1	inactive: > 76.9 µM
COCCCN1C(=O)C(=O)/C(=C(/O)c2ccc(OC(C)C)cc2)C1c1ccc(O)c(OC)c1 (configuration not stated)	inactive: > 76.9 µM

SMILES	Potency
COc1ccc(CN2CCC(C(=O)N(C)CCc3ccc(OC)c(OC)c3)CC2)c(OC)c1	inactive: > 76.9 µM
COCCn1c(-c2ccc(-c3ccccc3Cl)o2)nc2c1c(=O)[nH]c(=O)n2CC(C)C	inactive: > 76.9 µM
Cc1ccc(C(=O)Nc2nccs2)cc1S(=O)(=O)N1CCCCC1	inactive: > 76.9 µM
O=c1cc(N2CCc3ccccc3C2)[nH]c(=O)n1C1CCCCC1	inactive: > 76.9 µM
COC(=O)CSc1cc(C)nc(NC(C)=O)n1	inactive: > 76.9 µM
N#CCSc1nc2ccccc2c(=O)n1CCC(=O)NCCc1ccccc1	inactive: > 76.9 µM
Cc1nc2ncnn2c(N2CCN(C(c3ccccc3)c3ccccc3)CC2)c1C	inactive: > 76.9 µM
C=CCn1c(C)cc(C(=O)CN2C(=O)c3ccccc3C2=O)c1C	inactive: > 76.9 µM
Cc1sc2ncnc(NCCCn3ccnc3)c2c1C	inactive
CCN(CC)S(=O)(=O)c1ccc(C(=O)NC2=C(C(=O)OC)SCC2)cc1	inactive: > 76.9 µM
CNc1nc(OC)nc(N2CCOCC2)n1	inactive: > 76.9 µM
CCC(=O)c1cc2c(cc1NC(=O)c1ccc(C)cc1)OCCO2	inactive: > 76.9 µM
O=C(CN1CCCc2ccccc21)NCc1ccc2c(c1)OCO2	inactive: > 76.9 µM
C=CCn1c(SCC(=O)Nc2cccc(C)c2)nnc1-c1cnccn1	inactive: > 76.9 µM
O=C(Cn1nnc(-c2ccc(Cl)cc2)n1)NCCC1=CCCCC1	inactive: > 76.9 µM
Oc1c(C(Nc2nc3ccccc3s2)c2ccco2)ccc2cccnc12 (configuration not stated)	inactive: > 76.9 µM
Cc1cnn(C(=S)NCCc2ccccc2)c1	inactive: > 76.9 µM
CN(C)c1nc(N2CCOCC2)nc(N(c2ccccc2)c2ccccc2)n1	inactive: > 76.9 µM
COc1ccc(CNc2ccc(-c3ccc(OC)cc3)nn2)cc1	inactive: > 76.9 µM
CCC(CC)C(=O)Nc1cccc(C(=O)N2CCOCC2)c1	inactive: > 76.9 µM
Cc1nnc(SCC(=O)N2c3ccccc3CC2C)s1 (configuration not stated)	inactive: > 76.9 µM
CSc1nc(C2CC2)cc(-c2cccs2)c1C#N	inactive
Cc1cccc(CS(=O)(=O)Cc2ccc(C(=O)NCC3CCCO3)o2)c1 (configuration not stated)	inactive: > 76.9 µM
